# Whole data set: some 110,000 compounds, median “z-score” near -0.1, cut for the highest 2% near 2. This is one part of the list. Activity calls are given as the source filed them.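 Rule for the calls: active = z-score in the third read window above 3 or below -3; inactive = the rest.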
# Biological target: Metabotropic glutamate receptor 8 (Rattus norvegicus) (UniProt P70579)
# Test: rat mGluR8 modulators via GIRK flux, primary screen, cell-based, thallium flux, HTS (AID 488969)
# Conditions: HEK293 rat mGluR8, GIRK (G protein-gated inwardly rectifying potassium channel) thallium flux, FluoZin2; at 10 µM; stronger effect = higher value; submaximal glutamate (EC20) added with thallium
# Chain of UniProt P70579 (P70579 whole entry, looked up): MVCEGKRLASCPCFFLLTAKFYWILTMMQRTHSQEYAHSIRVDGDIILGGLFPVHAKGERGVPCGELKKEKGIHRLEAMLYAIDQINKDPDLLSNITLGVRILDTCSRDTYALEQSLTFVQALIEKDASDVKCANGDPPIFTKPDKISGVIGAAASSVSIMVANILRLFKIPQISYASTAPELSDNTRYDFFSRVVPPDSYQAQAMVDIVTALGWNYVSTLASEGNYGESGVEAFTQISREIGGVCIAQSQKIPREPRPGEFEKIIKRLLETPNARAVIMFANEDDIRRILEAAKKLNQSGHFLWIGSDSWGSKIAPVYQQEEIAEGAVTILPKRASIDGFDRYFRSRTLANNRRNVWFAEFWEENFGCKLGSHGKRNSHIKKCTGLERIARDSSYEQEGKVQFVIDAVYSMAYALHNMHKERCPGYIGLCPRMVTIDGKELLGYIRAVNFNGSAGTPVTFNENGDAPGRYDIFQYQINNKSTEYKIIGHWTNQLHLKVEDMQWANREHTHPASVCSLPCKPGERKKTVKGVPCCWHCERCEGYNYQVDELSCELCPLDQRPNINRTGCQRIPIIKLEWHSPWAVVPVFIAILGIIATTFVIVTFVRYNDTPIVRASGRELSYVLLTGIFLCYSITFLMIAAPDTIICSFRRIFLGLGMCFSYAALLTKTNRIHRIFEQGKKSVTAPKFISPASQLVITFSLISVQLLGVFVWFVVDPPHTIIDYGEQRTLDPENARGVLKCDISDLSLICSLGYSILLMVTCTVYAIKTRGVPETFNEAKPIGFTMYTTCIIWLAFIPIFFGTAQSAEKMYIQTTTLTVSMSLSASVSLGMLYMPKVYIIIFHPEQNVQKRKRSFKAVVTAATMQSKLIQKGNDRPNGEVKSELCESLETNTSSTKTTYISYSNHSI
row,SMILES,z-score
1,COc1ccc(C(=S)N2CCCCCC2)cc1,-0.075
2,CCOC(=O)C1CCN(C(=O)C2CCN(S(=O)(=O)CC)CC2)CC1,-0.558
3,O=C(NCCCn1ccnc1)c1csc2ccccc12,0.115
4,CCc1ccc(CNCc2cccnc2)cc1,0.22
5,COC(=O)c1ccc(/C=N/Nc2nc(-c3ccccc3)cs2)cc1,0.584
6,CC(=O)Nc1ccc(-c2csc(NCc3ccco3)n2)cc1,-0.435
7,O=C(Nc1ccccc1OC(F)F)c1ccc(Br)o1,-0.353
8,O=C(CSc1nc2ccc([N+](=O)[O-])cc2[nH]1)c1ccc(Cl)cc1,-0.137
9,COc1ccc2nc(NC(=O)C3CCCN(S(=O)(=O)c4cccs4)C3)sc2c1 (stereo not drawn),-0.119
10,CCCCNC(=O)c1cccnc1SCC(=O)Nc1ccccc1OC,-0.302
11,CC(C)(C)n1ncc2c(=O)n(CC(=O)OCc3ccccc3)cnc21,-1.62
12,O=C(COC(=O)C1CC2C=CC1C2)Nc1ccccc1 (stereo not drawn),0.0334
13,COC(=O)c1cccc(N2C(=O)c3cccnc3C2=O)c1,-0.446
14,Cc1onc(-c2ccccc2)c1C(=O)NC(=S)NNC(=O)c1ccc(O)cc1,-0.0811
15,CCOc1cccc2c1OC1(C)CC2NC(=O)N1c1cccc(Cl)c1 (stereo not drawn),0.891
16,COc1ccc(NC(=O)C2CCN(C(=O)c3ccccc3)CC2)c(OC)c1,-1.36
17,CC(NC(=O)c1ccncc1)C(c1cccs1)N1CCOCC1 (stereo not drawn),-0.25
18,CCc1nnc(NC(=O)CSc2ccc(-c3nc4ccc(C)cc4[nH]3)cn2)s1,-0.634
19,O=C(NCc1nnc(SCC(=O)N2CCN(c3ccccc3)CC2)o1)c1ccco1,-0.268
20,COc1ccc(C(=O)c2cnc3cc4c(cc3c2C)OCO4)cc1,0.728
21,N#CC1=C2N=C(N)c3c(sc4c3CCCCC4)N2C2=C(C(=O)CCC2)C1c1ccccc1 (stereo not drawn),-0.145
22,COc1ccc(C2CC2/C(=N/OC(=O)c2cccs2)c2ccccc2)cc1 (stereo not drawn),0.0512
23,CCCNC(=O)c1ccccc1NC(=O)CN(c1ccccc1OCC)S(C)(=O)=O,0.0372

row,SMILES,z-score
1,O=P(O)(CCc1ccccn1)CN1CCCCC1,-0.0234
2,O=C(O)c1ccc2c(c1)C(=O)N(N1C(=O)c3ccccc3C1=O)C2=O,-0.141
3,O=C(Cc1cccc2ccccc12)NNC(=O)c1cccs1,0.554
4,COc1ccc(-c2cc(C(F)(F)F)nc(SCC(=O)N3CC(C)OC(C)C3)n2)cc1OC (stereo not drawn),-1.34
5,O=C(CSc1nnc(SCc2ccc(Cl)cc2)s1)N/N=C/c1ccccc1Cl,-1.47
6,COCC(C)n1c(C)cc(C(=O)COC(=O)CNC(=O)c2ccccc2)c1C (stereo not drawn),-0.22
7,COc1cccc(NC(=O)c2nnn(CCc3ccccc3)c2N)c1,-1.07
8,COCCn1c(=NC(=O)/C=C/c2ccccc2)sc2cc(NC(C)=O)ccc21,-0.286
9,CC(SCc1ccccc1)C(=O)N/N=C/c1ccc2c(c1)OCO2 (stereo not drawn),-0.211
10,CCCn1c(=N)n(CC(=O)c2ccco2)c2ccccc21,-0.051
11,CC(=O)c1c(C)[nH]c(C(=O)CSc2nnc(C3CCCCC3)n2N)c1C,-0.783
12,O=C(c1scc2c1CCCC2)N1CCCCC1,-0.475
13,C=CCNc1nc(-c2sc(NC(C)=O)nc2C)cs1,1.33
14,Cc1ccc(NC(=S)NNC(=S)NCc2ccccc2)cc1,0.905
15,O=C(Cn1cc(C(=O)c2cccs2)c2ccccc21)NCC1CCCO1 (stereo not drawn),-0.355
16,O=C1Nc2cc(S(=O)(=O)N3CCCC3)ccc2N2CCCC12 (stereo not drawn),-0.878
17,CCCCCCCCCc1nc(N)n[nH]1,-0.191
18,CCOC(=O)Cc1csc(N)n1,-0.109
19,Cc1ccc(S(=O)(=O)CCc2nnc(NC(=O)c3cnccn3)s2)cc1,0.152
20,CCN(CC)S(=O)(=O)c1ccc(N2CCOCC2)c(NC(=O)Cc2ccccc2F)c1,-0.0749
21,FC(F)(F)c1nnc2c(Sc3ccc(Cl)cc3)nc3ccccc3n12,0.0577
22,CCOc1ccc2nc(NC(=O)C3CCCN(S(=O)(=O)c4cccc5nonc45)C3)sc2c1 (stereo not drawn),-1.42
23,CCC(=O)NC(NC(=S)Nc1c(C)n(C)n(-c2ccccc2)c1=O)C(Cl)(Cl)Cl (stereo not drawn),-0.491

row,SMILES,z-score
1,C1CCCN(CCCCN2CCCCCC2)CC1,1.95
2,COc1cc(C#CC#CCN2CCCCC2)ccc1O,2.82
3,C(#Cc1ccc(C#CCN2CCCC2)cc1)CN1CCCC1,-0.647
4,O=C(c1ccc(CS(=O)(=O)c2cccc(C(F)(F)F)c2)o1)N1CCN(c2ccccn2)CC1,-0.681
5,CCOC(=O)c1c(NC(=S)Nc2ccc(OC)cc2)sc2c1CCC2,0.905
6,CN(C)C(=O)CSc1nnc(-c2cnccn2)n1C,-0.224
7,CO/N=C/NC(=O)c1c(OC)ccnc1Oc1ccc(F)cc1,0.177
8,Cn1cccc1CNC(=O)Nc1ccccc1,-0.163
9,CC(c1nc2ccccc2c(=O)[nH]1)N(C)c1ccc2ccccc2c1 (stereo not drawn),-0.151
10,CCCCN(C)CC(O)Cn1cc(/C=C/C(=O)c2cccs2)c2ccccc21 (stereo not drawn),active: -3.19
11,CCC(c1nc2ccccc2c(=O)n1-c1cccnc1)N1C(=O)c2ccccc2C1=O (stereo not drawn),0.00964
12,CSc1ccc(/C=C(\C#N)C(=O)NC2CCCCC2)cc1,-0.555
13,CCOc1cc(/C=C2/SC(=O)N(CC(=O)N3CCc4ccccc4C3)C2=O)ccc1OCC(=O)O,0.146
14,CSc1nnc(-c2ccccc2Cl)o1,-0.168
15,Nc1ccc(C(=O)OCC(=O)Nc2ccc([N+](=O)[O-])cc2C(F)(F)F)cc1,-0.334
16,COc1ccc(C(O)c2coc3ccc(O)c(CN(C)C)c23)cc1 (stereo not drawn),1.14
17,CCc1cc(C(c2ccc(OC)c(OC)c2)N2CCOCC2)c(NC(=O)c2ccccc2)s1 (stereo not drawn),-0.47
18,COCCCNC(=O)Nc1ccc2c(c1)N(C)C(=O)CS2,-0.0792
19,CCOC(=O)N1CCN(C(=O)C(=O)NNC(=O)COc2ccc(Cl)cc2)CC1,-0.134
20,CCN(CC)S(=O)(=O)c1ccc(NC(=O)CN(c2cccc(F)c2)S(C)(=O)=O)cc1,-0.17
21,CCc1cc(C(=O)NNC(=S)NCc2ccccc2)cs1,0.0336
22,C=C(Br)Cn1c(CC)nc2ccccc21,0.07
23,COc1ccc(CC(=O)NCC2(c3ccc(OC)c(OC)c3)CCOCC2)cc1,-0.0286

row,SMILES,z-score
1,COC(=O)CC1NCCNC1=O (stereo not drawn),-0.306
2,CCS(=O)(=O)N1CCC(C(=O)NCCCOC)CC1,0.0117
3,O=C(CSc1nnnn1-c1ccccc1)NC(=O)Nc1ccc2c(c1)OCCO2,-0.362
4,Cc1ccc(C)c2nc(SCC(=O)N3CCCc4ccccc43)c(C#N)cc12,0.0257
5,O=C1c2ccccc2C(=O)N1CCCc1c[nH]c2ccc(Cl)cc12,-0.545
6,O=C(c1cccc([N+](=O)[O-])c1)N1CCOCC1,-0.543
7,C/C=C(\C)CN1CCc2cc(OC)c(OC)cc2C1,0.351
8,CCc1nnc(NC(=O)CN2CCN(c3ccc(Cl)cc3)CC2)s1,0.0568
9,NC(=O)c1ccc(-c2ccc(Br)cc2)o1,-0.204
10,CCOC(=O)CN1C(=O)C(O)=C(C(C)=O)C1c1ccc([N+](=O)[O-])cc1 (stereo not drawn),-0.177
11,COc1ccc(-c2nn(-c3ccccc3)cc2/C=C(\C#N)S(=O)(=O)c2ccccc2)cc1OC,-0.0376
12,O=C(c1ccncc1)c1ccc(N2CCN(C3CC(=O)N(Cc4ccccc4)C3=O)CC2)cc1 (stereo not drawn),-1.23
13,CCOC(=O)c1c(C)[nH]c(C(=O)COC(=O)c2[nH]c(C)c(C(C)=O)c2C)c1C,-0.211
14,CCCNC(=O)CN(CCc1ccccc1)S(C)(=O)=O,-0.00828
15,Cc1cccc(-c2nc3c(c(SCC(=O)N(C)C)n2)CCCC3)c1,-1.2
16,Cc1[nH]c2ccccc2c1SCC(=O)N1CCN(c2ccccc2)CC1,-0.0539
17,O=C(Nc1ccccc1)c1cccc(S(=O)(=O)Nc2ccccn2)c1,-0.152
18,C/C(Cn1nnc([N+](=O)[O-])n1)=N\NC(=O)c1ccccc1Cl,-0.153
19,CCn1c(SCC(=O)N/N=C/C=C/c2ccco2)nnc1-c1ccc(OC)cc1,-0.397
20,C=CCn1c(C)cc(C(=O)CSc2n[nH]c(N)n2)c1C,-0.0429
21,CC(C)(C)c1ccc(-c2noc(CCC(=O)NCC3CCCO3)n2)cc1 (stereo not drawn),0.079
22,O=c1c2ccccc2nc(SCc2cc(F)ccc2F)n1C1CCCC1,1.66
23,O=C(CSc1nc2[nH]ncc2c(=O)n1-c1ccccc1)N1CCCc2ccccc21,-0.674

row,SMILES,z-score
1,O=Cc1nc(-c2ccccc2Cl)n2ccccc12,0.0232
2,Cc1ccc(/C=C/C(=O)N2CCN(c3ccc(F)cc3)CC2)o1,1.06
3,COC(=O)c1ccc(NC(=S)Nc2ccccn2)cc1,0.293
4,CCOc1ccccc1CNC(=O)Cn1c(=O)oc2ccccc21,0.263
5,Cc1cc(C)c(-c2cc(C(=O)Nc3c(C)n(C)n(-c4ccccc4)c3=O)[nH]n2)c(O)c1,-0.34
6,O=C(Nc1nc(-c2ccccc2)cs1)c1ccc(Br)o1,2.96
7,CCOC(=O)CNc1c(N2CCN(c3ccccn3)CC2)c(=O)c1=O,-0.493
8,CC(=O)n1cc(C(C[N+](=O)[O-])SCCN)c2ccccc21 (stereo not drawn),-0.0387
9,O=C(NCCC1=CCCCC1)C1CCN(c2nc3ccccc3o2)CC1,-0.213
10,Cc1cc(C)cc(-n2nnnc2SCC(=O)Nc2cccc(NC(=O)c3ccco3)c2)c1,-0.984
11,O=C(O)C1CC=CCC1C(=O)c1ccccc1 (stereo not drawn),0.235
12,CCOc1ccc2nc(NC(=O)C3CCCN(S(=O)(=O)c4cccs4)C3)sc2c1 (stereo not drawn),0.284
13,Clc1ncc(CN2CCN(Cc3ccccc3)CC2)s1,0.0236
14,CCOC(=O)c1cc(NC(=O)N(CC)CC)c(C)nc1C,-0.267
15,C=CCSc1nnc(Cc2c(C)[nH]c3ccccc23)o1,-1.81
16,C=CCn1c(SCC(=O)N2CCc3ccccc3C2)nc2sc(C)cc2c1=O,-1.43
17,COc1cc(Cl)c(S(=O)(=O)N2CCOCC2)cc1Cl,-0.191
18,COc1ccc(-c2noc(CSc3nnc(CCc4ccccc4)n3-c3ccccc3)n2)cc1OC,-0.152
19,O=[n+]1c2c(n([O-])c3cc(F)ccc31)CCCC2,-0.257
20,O=[N+]([O-])c1c(NCCO)cc(N2CCN(Cc3ccc4c(c3)OCO4)CC2)c2nonc12,-0.231
21,Cc1cccc(Nc2ncnc3ccccc23)c1,-0.262

# — PubChem BioAssay AID488969 (Vanderbilt High Throughput Screening Facility, 2010)
